Measured values reported in PMC4336329 (PLoS ONE, 2015).
Among all 310,000 compounds or so, about 14,000 (4.5%) showed an effect of 50% or more. The effect is printed as a negative number. The list shows a part of the results. Where a SMILES comes first, the peptide text is derived from it. [ ]: non-standard residue; d: D form. The star is where a group is joined. ξ: configuration not given here. Cbz = O=C(OCc1ccccc1)*; ξV = CC(C)C(N)C(=O)O; OtBu = CC(C)(C)O*

Target: human ether-à-go-go-related gene (hERG) potassium channel (human, UniProt Q12809)
Test: primary screen, population patch clamp on CHO cells stably expressing hERG
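Further: peak tail current of the secondary pulse compared with the same well before compound.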

Sequence of human ether-à-go-go-related gene (hERG) potassium channel (Q12809 whole entry, looked up): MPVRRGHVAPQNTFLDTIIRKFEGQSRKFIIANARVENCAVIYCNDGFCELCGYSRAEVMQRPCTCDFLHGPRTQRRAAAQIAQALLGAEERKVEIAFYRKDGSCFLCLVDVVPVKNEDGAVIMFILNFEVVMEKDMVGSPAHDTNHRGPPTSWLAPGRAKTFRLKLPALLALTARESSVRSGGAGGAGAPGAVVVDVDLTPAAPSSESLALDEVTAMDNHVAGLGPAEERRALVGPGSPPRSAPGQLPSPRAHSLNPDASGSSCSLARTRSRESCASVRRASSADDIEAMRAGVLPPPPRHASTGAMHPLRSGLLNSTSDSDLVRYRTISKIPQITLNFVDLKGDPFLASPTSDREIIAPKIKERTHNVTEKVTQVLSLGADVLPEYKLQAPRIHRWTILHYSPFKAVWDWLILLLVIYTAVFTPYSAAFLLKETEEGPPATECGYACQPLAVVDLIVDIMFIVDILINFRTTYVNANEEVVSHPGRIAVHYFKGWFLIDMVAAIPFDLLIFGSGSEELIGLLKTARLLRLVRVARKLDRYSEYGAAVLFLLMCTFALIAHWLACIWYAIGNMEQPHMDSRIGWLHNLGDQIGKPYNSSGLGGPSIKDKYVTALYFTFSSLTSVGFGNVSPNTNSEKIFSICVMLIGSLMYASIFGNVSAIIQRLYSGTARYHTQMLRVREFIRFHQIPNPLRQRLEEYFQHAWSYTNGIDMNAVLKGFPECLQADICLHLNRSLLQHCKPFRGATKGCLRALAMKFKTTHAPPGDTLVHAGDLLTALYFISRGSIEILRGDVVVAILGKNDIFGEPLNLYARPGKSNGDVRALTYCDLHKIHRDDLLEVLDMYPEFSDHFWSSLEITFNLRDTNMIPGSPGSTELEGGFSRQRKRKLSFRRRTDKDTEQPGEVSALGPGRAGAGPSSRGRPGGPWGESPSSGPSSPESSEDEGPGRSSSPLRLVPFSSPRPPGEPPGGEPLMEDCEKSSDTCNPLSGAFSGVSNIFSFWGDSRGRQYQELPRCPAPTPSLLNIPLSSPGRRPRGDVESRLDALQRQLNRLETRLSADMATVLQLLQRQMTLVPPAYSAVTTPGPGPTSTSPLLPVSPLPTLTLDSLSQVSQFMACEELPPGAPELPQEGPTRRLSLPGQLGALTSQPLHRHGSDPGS

| SMILES | hERG current change (%, negative = inhibition) at 10uM [%] |
| --- | --- |
| C=CCNC(=S)N/N=C(\C)c1cccnc1 | 0.787 |
| O=C(Nc1ccc(S(=O)(=O)N2CCOCC2)cc1)C1CC(=O)N(c2ccc(F)cc2)C1 (stereo not shown) | 13.7 |
| CC(C)CNC(=O)c1cccc(NC(=O)CCc2ccccc2)c1 | -9.16 |
| Cc1ccccc1OCc1nc(-c2cccnc2)no1 | -4.6 |
| O=[N+]([O-])c1cccc(P(=O)(O)c2cccc([N+](=O)[O-])c2)c1 | 1.49 |
| Cc1noc(C)c1CC(=O)N1CCCC(C(=O)c2ccc(C(C)(C)C)cc2)C1 (stereo not shown) | -18.8 |
| Cc1ccc(OCC(=O)N2N=C(c3ccc(Cl)cc3)CC2c2ccco2)c([N+](=O)[O-])n1 (stereo not shown) | -63.3 |
| CC(C)C(NC(=O)OCc1ccccc1)C(=O)NCC(=O)OC(C)(C)C (stereo not shown) (Cbz-[ξV]-Gly-OtBu) | 7.88 |
| COc1ccc(Cl)cc1NS(=O)(=O)c1cc(Cl)ccc1OC | 3.37 |
| CC(C)C(NS(=O)(=O)c1cccs1)C(=O)N1CCC(C(N)=O)CC1 (stereo not shown) | 12 |
| Cc1nc2cc(NC(=O)NCc3ccc4c(c3)OCO4)ccc2o1 | 4.7 |
| Cn1c(=O)[nH]c(=O)c2c1nc(Br)n2Cc1ccccc1F | 1.66 |
| S=C1NC2(CCCC2)N=C1c1ccccc1 | 9.99 |
| COc1cc(/C=C/C(=O)Nc2ccc(N3CCCCC3)c(S(=O)(=O)Nc3ccccc3Cl)c2)cc(OC)c1OC | 9.86 |
| O=C(O)C(CO)(c1ccccc1)c1ccccc1 | 5.69 |
| CCOC(=O)CN1C(c2ccc(O)cc2)Nc2ccc(Br)cc2C1c1ccccc1 (stereo not shown) | 2.1 |
| CCCOc1ccccc1C1NC(=O)NC(C)=C1C(=O)OCCOCC (stereo not shown) | 7.8 |
| Cc1ccc(S(=O)(=O)c2nc(-c3ccco3)oc2SCC(=O)NCC2CCCO2)cc1 (stereo not shown) | -1.02 |
| CC(C)Oc1ccc(S(=O)(=O)N2CCCCC2)cc1NC(=O)CN1C(=O)NC(C)(c2ccccc2)C1=O (stereo not shown) | -0.319 |
| CC(=O)c1cccc(NC(=O)CSc2nnc(C(C)N(C)C)n2-c2ccc(F)cc2)c1 (stereo not shown) | -8.59 |
| CCOC(=O)/C(O)=C(\C#N)c1nc2ccccc2[nH]1 | 17.7 |
| c1ccc(-n2nnnc2SCc2ccccn2)cc1 | 7.26 |

| SMILES | hERG current change (%, negative = inhibition) at 10uM [%] |
| --- | --- |
| CS(=O)(=O)c1nc(S(=O)(=O)c2ccc(Cl)cc2)c(N2CCOCC2)s1 | 12.1 |
| Cc1ccc(C(=O)NCCc2nnc3c(C(F)(F)F)cc(Cl)cn23)o1 | 6.52 |
| O=C1Nc2cc(C(=O)N3CCC4(CC3)OCCO4)ccc2S/C1=C\c1ccccc1 | 36.4 |
| O=C(c1ccc(CS(=O)c2ccc(F)cc2)o1)N1CCN(C2CCCCC2)CC1 (stereo not shown) | -11.9 |
| CCOC(=O)C1=C(C)NC(C)=C(C(=O)OCC)C1C(=O)OCC(N)=O | 18.5 |
| COc1ccc(-c2n[nH]c(=S)n2Cc2ccco2)cc1 | -3.73 |
| O=C1NC2=C(C(=O)c3ccccc32)C(c2ccccc2)N1 (stereo not shown) | -7.72 |
| O=C(NCC(O)c1ccccc1)c1cccs1 (stereo not shown) | -32.2 |
| CCOC(=O)[C@H](CCc1ccccc1)N[C@@H](C)C(=O)N1C(C(=O)O)C[C@@H]2CCC[C@@H]21 (stereo partly shown) | 11.1 |
| Cc1ccc(C(C2C(=O)CC(C)(C)CC2=O)C2C(=O)CC(C)(C)CC2=O)s1 | 14.3 |
| CCc1cccc(NC(=O)CCCN2C(=O)NC(C)(C)C2=O)c1 | 13.4 |
| COc1ccc(Nc2oc(COc3cccc(C)c3)nc2C#N)cc1 | 14 |
| Cc1cccc(N2CCN(S(=O)(=O)c3ccc4c(c3)CCN4C(=O)CCC(=O)O)CC2C)c1 (stereo not shown) | 17.1 |
| CC(=O)Nc1cc(C(C)(C)C)c(O)c(C(C)(C)C)c1 | 14.4 |
| CN(C)CCOC1c2ccccc2CCc2ccc3ccccc3c21.O=C(O)C(=O)O (stereo not shown) | -1.36 |
| COc1cccc(C(=O)Nc2ccc(NC(=O)c3ccco3)c(Cl)c2)c1 | 21.7 |
| COc1cccc(C2=CC(=O)C[C@H](c3ccc4c(c3)OCO4)C2)c1 | -38 |
| Cc1cc(C)cc(N(CCC#N)C(=O)COC(=O)CCc2c[nH]c3ccccc23)c1 | -32.6 |
| Nc1nc(NC(=O)c2cccnc2)nn1-c1ccccc1 | 18.8 |
| Cc1ccc(C(C(=O)NC2CCCC2)N(C(=O)Cc2cccs2)c2cccc(C)c2C)o1 (stereo not shown) | 10.2 |
| CCOC(=O)c1ccc(NC(=S)NCCC2=CCCCC2)cc1 | 28.5 |
